Screen size: about 310,000 compounds; about 2,200 (0.71%) showed an effect of 50% or more. Effects have a minus sign here. The list shows a part of the results.
Molecular target: human ether-à-go-go-related gene (hERG) potassium channel (human, UniProt Q12809)
Assay: primary screen, population patch clamp on CHO cells stably expressing hERG

Chain of human ether-à-go-go-related gene (hERG) potassium channel (Q12809 whole entry, looked up): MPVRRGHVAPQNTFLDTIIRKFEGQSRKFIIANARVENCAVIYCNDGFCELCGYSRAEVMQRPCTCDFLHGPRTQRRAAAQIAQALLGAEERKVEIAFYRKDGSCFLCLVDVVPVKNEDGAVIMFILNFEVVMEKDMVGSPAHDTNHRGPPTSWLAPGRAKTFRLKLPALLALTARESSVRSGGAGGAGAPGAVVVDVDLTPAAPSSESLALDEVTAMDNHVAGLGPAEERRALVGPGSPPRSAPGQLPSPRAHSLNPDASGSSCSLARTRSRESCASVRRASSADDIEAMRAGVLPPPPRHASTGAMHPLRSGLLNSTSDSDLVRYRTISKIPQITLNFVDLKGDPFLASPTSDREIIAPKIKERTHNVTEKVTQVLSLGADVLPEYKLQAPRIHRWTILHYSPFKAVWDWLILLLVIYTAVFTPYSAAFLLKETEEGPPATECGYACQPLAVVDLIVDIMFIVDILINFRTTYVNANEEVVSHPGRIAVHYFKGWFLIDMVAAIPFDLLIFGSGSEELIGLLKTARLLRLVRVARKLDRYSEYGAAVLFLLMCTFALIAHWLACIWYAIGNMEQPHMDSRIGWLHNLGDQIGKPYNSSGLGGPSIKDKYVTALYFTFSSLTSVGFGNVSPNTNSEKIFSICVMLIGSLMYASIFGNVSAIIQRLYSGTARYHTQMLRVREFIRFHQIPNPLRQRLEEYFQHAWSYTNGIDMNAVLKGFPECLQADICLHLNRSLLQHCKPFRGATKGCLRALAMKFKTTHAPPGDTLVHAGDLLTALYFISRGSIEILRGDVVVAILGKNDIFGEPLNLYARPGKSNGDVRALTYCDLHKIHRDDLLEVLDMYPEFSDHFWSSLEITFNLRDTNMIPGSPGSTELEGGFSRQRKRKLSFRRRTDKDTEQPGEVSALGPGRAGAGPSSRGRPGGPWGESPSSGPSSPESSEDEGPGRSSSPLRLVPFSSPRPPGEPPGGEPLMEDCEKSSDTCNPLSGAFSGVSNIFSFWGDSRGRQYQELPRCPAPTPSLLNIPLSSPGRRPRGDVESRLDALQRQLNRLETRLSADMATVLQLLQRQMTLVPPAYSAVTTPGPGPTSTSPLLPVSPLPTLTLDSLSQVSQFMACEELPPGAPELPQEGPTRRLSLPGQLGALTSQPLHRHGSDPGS

Row | Compound | hERG current change (%, negative = inhibition) at 1uM [%]
1 | O=C(NCCCCNC(=O)c1ccccc1Cl)c1ccccc1Cl | 9.68
2 | COc1cc(/C=N/NC2=NCCCCC2)ccc1O.Cl | 10.8
3 | O=C(Nc1ccc(Cl)cc1C(=O)NCC1CCCO1)c1ccc(Cl)cc1Cl (stereo not shown) | 11.8
4 | Cc1cccc(C(=O)NCC(=O)NNC(=O)c2ccccc2O)c1 | 8.96
5 | COCC(COS(N)(=O)=O)C(C)C (stereo not shown) | 7.19
6 | COc1ccc(CCC(=O)NNC(=O)c2cc(Cl)ccc2OC)cc1OC | 3.48
7 | CC(C)CCNC(=O)C1CCN(S(=O)(=O)c2ccc(-n3cnnn3)cc2)CC1 | 10.1
8 | COc1ccc(CNC(=O)c2cnc3cc(C)ccn3c2=O)cc1 | 4.63
9 | O=C(CC1NCCNC1=O)Nc1ccc(Oc2ccccc2)cc1 (stereo not shown) | 20.8
10 | O=C(COC(=O)c1cccs1)c1ccccc1 | 11.1
11 | Cc1ccccc1NCCC(=O)Nc1ccc(Cl)cc1 | 2.25
12 | COC(=O)[C@H](CCSC)NC(=O)N1CCC(C)CC1 | 4.82
13 | CCn1c(SCC(=O)NCC2CCCO2)nc2c([nH]c3ccccc32)c1=O (stereo not shown) | 8.75
14 | O=C(O)CC1SC(=Nc2cccc(C(F)(F)F)c2)NC1=O (stereo not shown) | 9.22
15 | CCOC(=O)C1=C(Cn2cnc3ccccc32)NC(=O)NC1c1ccc(OC)cc1 (stereo not shown) | -9.03
16 | COc1cc(N(C(=O)Cc2cccs2)C(C(=O)NC2CCCCC2)c2cccc(OC)c2OC)ccc1-n1cnnn1 (stereo not shown) | 8.24
17 | CCN1C(=O)N[C@@H](c2cccc(C(F)(F)F)c2)[C@@H](C(=O)OC)[C@H]1C | -0.168
18 | O=C(CSc1ccc2ccccc2c1)NC1CCCc2ccccc21 (stereo not shown) | 10.3
19 | COc1cc(C(=O)Oc2ccccc2)ccc1OCc1c(C)noc1C | 16.2
20 | CC(C)(C)OC(=O)N1CCC(CNC(=O)c2cccs2)CC1 | 11.1
21 | Cl.OC(CNCC#Cc1ccccc1)c1ccccc1 (stereo not shown) | 13.3
22 | Cc1cc(=O)[nH]c(-n2[nH]c(C)cc2=O)n1 | 4.95
23 | CCN1CCc2nc(NC(=O)c3ccc(S(=O)(=O)N(C)C)cc3)sc2C1 | 5

Row | Compound | hERG current change (%, negative = inhibition) at 1uM [%]
24 | Cc1ccc(-c2nnc(-c3ccccc3)c(-c3ccccc3)n2)cc1 | 7.01
25 | Cc1cccc(NS(=O)(=O)c2ccc3c(c2)OCCO3)c1 | 8.22
26 | CC(=O)Nc1ccc(S(=O)(=O)N(C)CC(=O)Nc2cccc(S(=O)(=O)N3CCCC3)c2)cc1 | 7.31
27 | O=C(NCCCN1CCOCC1)c1c(F)cccc1F | 1.05
28 | Cc1ccc(C)c(NS(=O)(=O)c2c(C)ccc3nsnc23)c1 | 0.605
29 | CCOc1ccc(N2C(=O)CC(N3CCN(C4CCc5ccccc5C4)CC3)C2=O)cc1 (stereo not shown) | -65.5
30 | O=C(O)/C=C/c1ccc([N+](=O)[O-])o1 | 11.1
31 | COC(=O)Cn1cc(C(=O)OC)cc(Br)c1=O | 1.56
32 | COc1cccc(-n2c(=O)[nH]cc(C(=O)Nc3ccc(NC(C)=O)cc3)c2=O)c1 | 8.55
33 | Cc1csc2ncc(C(=O)N3CCc4ccccc43)c(=O)n12 | 14.6
34 | CCOc1ccc(C(=O)CC(C(=O)O)N2CCN(Cc3ccccc3)CC2)cc1 (stereo not shown) | 14.6
35 | Cn1c(SCC(=O)N2CCN(S(=O)(=O)c3ccc(Cl)cc3)CC2)nc2ccccc21 | 11.2
36 | C=CCSc1nnc(NC(=O)Cn2cnc3c2c(=O)n(C)c(=O)n3C)s1 | 12.8
37 | COc1ccc(NC(=O)Cc2nnc(SCC(=O)c3ccc(F)cc3)n2C)cc1 | 16.4
38 | Cc1csc(SCC(=O)Nc2cccc(S(=O)(=O)N3CCCC3)c2)n1 | -2.37
39 | Clc1ccc(/C=N/NC2=Nc3cccc4cccc2c34)cc1 | 4.72
40 | N#Cc1ccc(COC(=O)CCc2c[nH]c3ccccc23)cc1 | 3.53
41 | CC(C)C(=O)Nc1cccc(NC(=S)NC(=O)c2ccc3c(c2)OCO3)c1 | 10.6
42 | O=C(NC(=S)NC1C2CC3CC(C2)CC1C3)c1ccccc1 (stereo not shown) | 10.1
43 | CCOC(=O)N1CCN(C(=O)COC(=O)Cc2ccc(Cl)cc2)CC1 | -3.36
44 | COc1cc(/C=C(\C#N)c2nc3ccccc3o2)ccc1O | 4.77
45 | COc1ccc(C(=O)/C=C2/C(=O)Nc3ccccc32)c(OC)c1 | 14.2
46 | N#Cc1cc(-c2ccccc2)nc(N2CCNCC2)n1 | 8.63

Row | Compound | hERG current change (%, negative = inhibition) at 1uM [%]
47 | O=C1/C(=C/c2ccc(N3CCOCC3)o2)SC(=Nc2ccccc2)N1CCc1c[nH]c2ccccc12 | 6.23
48 | COC(=O)c1ccsc1NC(=O)C1=COCCO1 | 16.2
49 | O=C1c2ccccc2CN2C(=O)c3ccccc3CN12 | 26.3
50 | CCOC1(OCC)C(c2ccc(N)cc2)C(C#N)(C#N)C1(OCC)OCC (stereo not shown) | 13.5
51 | Cc1ccc(C(=O)C[n+]2cc(Br)cc(Br)c2)cc1[N+](=O)[O-].[Br-] | 4.51
52 | CN(C)C(CNC(=S)Nc1ccccc1Cl)c1cccnc1 (stereo not shown) | 11.7
53 | Cc1csc(NC(=O)Cn2cnnn2)n1 | 10.6
54 | Cc1c(-n2cc(C(=O)c3cc(F)ccc3O)cc(C#N)c2=O)c(=O)n(-c2ccccc2)n1C | 2.47
55 | CC(C)CSc1nc2ccccc2n1CC(N)=O | 8.91
56 | CC(=O)Nc1nnc(-c2ccco2)o1 | 6.48
57 | O=C(Oc1coc(CSc2ncccn2)cc1=O)c1ccc(Br)o1 | 11.6
58 | c1coc(CNC2CCCCCCC2)c1 | 13.1
59 | Cc1cc(NC(=O)c2cccc(N3C(=O)CCC3=O)c2)no1 | 4.32
60 | COc1cccc(C(=O)N2CCC(n3nccc3NC(=O)C3CCOC3)CC2)c1 (stereo not shown) | -6.17
61 | Cc1ccc2c(c1)nc(NCCCO)n2C | 11.9
62 | COc1ccc(NC(=O)CSc2ccc(-c3ccco3)nn2)cc1OC | 1.7
63 | C=CCOc1ccccc1CN1CCC(CO)(CCOc2ccccc2)CC1 | -61.4
64 | CCC(=O)Nc1cc(C(=O)OCC(=O)c2ccccc2)ccc1C | 10.2
65 | O=C(COc1ccc2c(c1)OCO2)Nc1ccccc1C(F)(F)F | 9.93
66 | COc1cc(NC(=O)c2cc(-c3ccc4c(c3)OCO4)on2)cc(OC)c1OC | 7.02
67 | CCOC(=O)Cc1csc(NC(=O)c2cc(-c3ccncc3)nc3ccccc23)n1 | 9.13
68 | CCOCCCNC(=O)C(c1ccc(C)cc1)N1CCOCC1 (stereo not shown) | 13
69 | Cc1cc(Br)ccc1NC(=O)C(C)c1ccc([N+](=O)[O-])cc1 (stereo not shown) | -45.2

Row | Compound | hERG current change (%, negative = inhibition) at 1uM [%]
70 | CCC(OC(=O)c1cccs1)C(=O)NCc1ccco1 (stereo not shown) | 8.2
71 | O=c1c2c3c(sc2nc(N2CCNCC2)n1-c1cccc(Cl)c1)CCCCC3 | 10.3
72 | Nc1nncn1C(=O)CCc1ccccc1 | -2.61
73 | Br.Nc1ccc(OCC(O)C[n+]2ccc(CCS(=O)(=O)[O-])cc2)cc1 (stereo not shown) | 6.98
74 | Cc1ccccc1NC(=S)N(CCc1c(C)[nH]c2ccc(F)cc12)Cc1cccnc1 | 13
75 | CCN(CC(=O)Nc1ccc2c(c1)OCCO2)C(=O)C1CCCCC1 | 1.8
76 | Cn1nnnc1SCC(=O)NCCc1ccc(Cl)cc1 | 4.86
77 | COc1ccc(Nc2ncnc3sc(C)cc23)c(OC)c1.Cl | 10.1
78 | CCCc1cc2c(=O)c(-c3ccccn3)c(C)oc2cc1O | 8.84
79 | C[C@]12C[C@H](O)[C@H]3[C@@H](CCC4=CC(=O)CC[C@@]43C)[C@@H]1CC[C@@H]2C(=O)CO | 8.41
80 | Cc1ccc2cc(C#N)c(N3CCCN(C(=O)C4CCCO4)CC3)nc2c1 (stereo not shown) | -0.416
81 | COc1cc(-c2nnc(NC(=O)CCS(=O)(=O)c3ccccc3)o2)cc(OC)c1OC | 8.18
82 | O=S(=O)(Nc1ccc(S(=O)(=O)N2CCOCC2)cc1)c1ccc(Br)cc1 | -0.287
83 | Cc1ccc(S(=O)(=O)N(C)CCCC(=O)NCc2ccc3c(c2)OCO3)cc1 | 1.55
84 | CC1(C(=O)NNC(=O)c2ccc([N+](=O)[O-])cc2)CC1(Br)Br (stereo not shown) | 15.1
85 | CCOc1cc(CNc2ccccc2)cc(Br)c1OCc1ccc(F)cc1 | 16.2
86 | O=C(Nc1cccc(O)c1)c1cc2nc(-c3ccccc3)cc(-c3ccccc3)n2n1 | 9.81
87 | O=C1C2=C(NC(=S)NC2c2ccc(Cl)cc2)NC(c2ccc(Cl)cc2)N1c1ccc(Cl)cc1 (stereo not shown) | 7.66
88 | COc1ccc(-c2noc(-c3ccccc3C(=O)NCC3CCCO3)n2)cc1 (stereo not shown) | -10.5
89 | O=C(CNCC1CCCO1)NCc1ccco1.O=C(O)C(=O)O (stereo not shown) | 16.6
90 | Cn1c(-c2sc3cc(C(F)(F)F)cnc3c2-c2cccnc2)n[nH]c1=S | 17.2
91 | Cc1nc2ccc(S(=O)(=O)Nc3ccc(-c4nc5cccnc5s4)cc3)cc2s1 | 10.3
